# According to the supplement of paper PMC8728848:
# The other results are listed elsewhere or left out.
# What was measured:
# Assay in all cases: glycan array binding signal (z-score within array); higher = stronger binding
# Details in all cases: glycan notation: IUPAC condensed, linker removed
# [1] = molecular target: GlcNAc(b1-2)Gal(b1-3)GalNAc
# In short: (§1)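 The binding signal is a Z-score computed within each array. Data were drawn from 3228 arrays in the Consortium for Functional Glycomics database, restricted to those with a known protein sequence. Scores were averaged over arrays of the same protein sequence at different concentrations or buffers, and over linkers, and negative values can be taken as non-binding.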
# [2] = molecular target: GlcNAc(b1-2)Man(a1-3)[GlcNAc(b1-2)Man(a1-6)]Man(b1-4)GlcNAc(b1-4)GlcNAc
# In short: as §1
# [3] = molecular target: GlcNAc(b1-2)Man(a1-3)[GlcNAc(b1-2)Man(a1-6)]Man(b1-4)GlcNAc(b1-4)[Fuc(a1-6)]GlcNAc
# In short: as §1
# [4] = molecular target: GlcNAc(b1-2)Man(a1-3)[GlcNAc(b1-4)][GlcNAc(b1-2)Man(a1-6)]Man(b1-4)GlcNAc(b1-4)GlcNAc
# In short: as §1
# [5] = molecular target: GlcNAc(b1-2)Man(a1-3)[GlcNAc(b1-4)][GlcNAc(b1-2)Man(a1-6)]Man(b1-4)GlcNAc(b1-4)[Fuc(a1-6)]GlcNAc
# In short: as §1
# [6] = molecular target: GlcNAc(b1-2)[GlcNAc(b1-4)]Man(a1-3)[GlcNAc(b1-2)Man(a1-6)]Man(b1-4)GlcNAc(b1-4)GlcNAc
# In short: as §1
# [7] = molecular target: GlcNAc(b1-2)[GlcNAc(b1-4)]Man(a1-3)[GlcNAc(b1-4)][GlcNAc(b1-2)Man(a1-6)]Man(b1-4)GlcNAc(b1-4)GlcNAc
# In short: as §1
# [8] = molecular target: GlcNAc(b1-2)[GlcNAc(b1-4)]Man(a1-3)[GlcNAc(b1-4)][GlcNAc(b1-2)[GlcNAc(b1-6)]Man(a1-6)]Man(b1-4)GlcNAc(b1-4)GlcNAc
# In short: as §1
# [9] = molecular target: GlcNAc(b1-2)[GlcNAc(b1-4)]Man(a1-3)[GlcNAc(b1-4)][GlcNAc(b1-2)[GlcNAc(b1-6)]Man(a1-6)]Man(b1-4)GlcNAc(b1-4)[Fuc(a1-6)]GlcNAc
# In short: as §1
# [10] = molecular target: GlcNAc(b1-2)[GlcNAc(b1-6)]Man(a1-6)[GlcNAc(b1-2)Man(a1-3)]Man(b1-4)GlcNAc(b1-4)GlcNAc
# In short: as §1
# [11] = molecular target: GlcNAc(b1-2)[GlcNAc(b1-6)]Man(a1-6)[GlcNAc(b1-2)Man(a1-3)]Man(b1-4)GlcNAc(b1-4)[Fuc(a1-6)]GlcNAc
# In short: as §1
# [12] = molecular target: GlcNAc(b1-2)[GlcNAc(b1-6)]Man(a1-6)[GlcNAc(b1-4)][GlcNAc(b1-2)Man(a1-3)]Man(b1-4)GlcNAc(b1-4)GlcNAc
# In short: as §1
# GlcNAc(b1-3)Fuc = molecular target: GlcNAc(b1-3)Fuc
# In short: as §1
# GlcNAc(b1-3)Gal = molecular target: GlcNAc(b1-3)Gal
# In short: as §1
# [13] = molecular target: GlcNAc(b1-3)Gal(b1-3)GalNAc
# In short: as §1
# GlcNAc(b1-3)Gal(b1-4)Glc = molecular target: GlcNAc(b1-3)Gal(b1-4)Glc
# In short: as §1
# [14] = molecular target: GlcNAc(b1-3)Gal(b1-4)GlcNAc
# In short: as §1
# [15] = molecular target: GlcNAc(b1-3)Gal(b1-4)GlcNAc(b1-2)Man(a1-3)[GlcNAc(b1-3)Gal(b1-4)GlcNAc(b1-2)Man(a1-6)]Man(b1-4)GlcNAc(b1-4)GlcNAc
# In short: as §1
# [16] = molecular target: GlcNAc(b1-3)Gal(b1-4)GlcNAc(b1-2)Man(a1-3)[GlcNAc(b1-3)Gal(b1-4)GlcNAc(b1-2)Man(a1-6)]Man(b1-4)GlcNAc(b1-4)[Fuc(a1-6)]GlcNAc
# In short: as §1
# [17] = molecular target: GlcNAc(b1-3)Gal(b1-4)GlcNAc(b1-2)[GlcNAc(b1-3)Gal(b1-4)GlcNAc(b1-6)]Man(a1-6)[GlcNAc(b1-3)Gal(b1-4)GlcNAc(b1-2)Man(a1-3)]Man(b1-4)GlcNAc(b1-4)GlcNAc
# In short: as §1
# [18] = molecular target: GlcNAc(b1-3)Gal(b1-4)GlcNAc(b1-3)Gal(b1-4)GlcNAc
# In short: as §1
# [19] = molecular target: GlcNAc(b1-3)Gal(b1-4)GlcNAc(b1-3)Gal(b1-4)GlcNAc(b1-2)Man(a1-3)[GlcNAc(b1-3)Gal(b1-4)GlcNAc(b1-3)Gal(b1-4)GlcNAc(b1-2)Man(a1-6)]Man(b1-4)GlcNAc(b1-4)GlcNAc
# In short: as §1
# [20] = molecular target: GlcNAc(b1-3)Gal(b1-4)GlcNAc(b1-3)Gal(b1-4)GlcNAc(b1-2)Man(a1-3)[GlcNAc(b1-3)Gal(b1-4)GlcNAc(b1-3)Gal(b1-4)GlcNAc(b1-2)Man(a1-6)]Man(b1-4)GlcNAc(b1-4)[Fuc(a1-6)]GlcNAc
# In short: as §1
# [21] = molecular target: GlcNAc(b1-3)Gal(b1-4)GlcNAc(b1-3)Gal(b1-4)GlcNAc(b1-2)[GlcNAc(b1-3)Gal(b1-4)GlcNAc(b1-3)Gal(b1-4)GlcNAc(b1-6)]Man(a1-6)[GlcNAc(b1-3)Gal(b1-4)GlcNAc(b1-3)Gal(b1-4)GlcNAc(b1-2)Man(a1-3)]Man(b1-4)GlcNAc(b1-4)[Fuc(a1-6)]GlcNAc
# In short: as §1
# [22] = molecular target: GlcNAc(b1-3)Gal(b1-4)GlcNAc(b1-3)Gal(b1-4)GlcNAc(b1-3)Gal(b1-4)GlcNAc(b1-2)Man(a1-3)[GlcNAc(b1-3)Gal(b1-4)GlcNAc(b1-3)Gal(b1-4)GlcNAc(b1-3)Gal(b1-4)GlcNAc(b1-2)Man(a1-6)]Man(b1-4)GlcNAc(b1-4)GlcNAc
# In short: as §1
# [23] = molecular target: GlcNAc(b1-3)Gal(b1-4)GlcNAc(b1-3)Gal(b1-4)GlcNAc(b1-3)Gal(b1-4)GlcNAc(b1-2)Man(a1-3)[GlcNAc(b1-3)Gal(b1-4)GlcNAc(b1-3)Gal(b1-4)GlcNAc(b1-3)Gal(b1-4)GlcNAc(b1-2)Man(a1-6)]Man(b1-4)GlcNAc(b1-4)[Fuc(a1-6)]GlcNAc
# In short: as §1
# [24] = molecular target: GlcNAc(b1-3)Gal(b1-4)GlcNAc(b1-3)Gal(b1-4)GlcNAc(b1-3)Gal(b1-4)GlcNAc(b1-2)[GlcNAc(b1-3)Gal(b1-4)GlcNAc(b1-3)Gal(b1-4)GlcNAc(b1-3)Gal(b1-4)GlcNAc(b1-6)]Man(a1-6)[GlcNAc(b1-3)Gal(b1-4)GlcNAc(b1-3)Gal(b1-4)GlcNAc(b1-3)Gal(b1-4)GlcNAc(b1-2)Man(a1-3)]Man(b1-4)GlcNAc(b1-4)[Fuc(a1-6)]GlcNAc
# In short: as §1
# [25] = molecular target: GlcNAc(b1-3)Gal(b1-4)GlcNAc(b1-3)Gal(b1-4)GlcNAc(b1-3)Gal(b1-4)GlcNAc(b1-3)Gal(b1-4)GlcNAc(b1-2)Man(a1-3)[GlcNAc(b1-3)Gal(b1-4)GlcNAc(b1-3)Gal(b1-4)GlcNAc(b1-3)Gal(b1-4)GlcNAc(b1-3)Gal(b1-4)GlcNAc(b1-2)Man(a1-6)]Man(b1-4)GlcNAc(b1-4)GlcNAc
# In short: as §1
# [26] = molecular target: GlcNAc(b1-3)Gal(b1-4)GlcNAc(b1-3)Gal(b1-4)GlcNAc(b1-3)Gal(b1-4)GlcNAc(b1-3)Gal(b1-4)GlcNAc(b1-2)Man(a1-3)[GlcNAc(b1-3)Gal(b1-4)GlcNAc(b1-3)Gal(b1-4)GlcNAc(b1-3)Gal(b1-4)GlcNAc(b1-3)Gal(b1-4)GlcNAc(b1-2)Man(a1-6)]Man(b1-4)GlcNAc(b1-4)[Fuc(a1-6)]GlcNAc
# In short: as §1
# [27] = molecular target: GlcNAc(b1-3)Gal(b1-4)GlcNAc(b1-3)Gal(b1-4)GlcNAc(b1-3)Gal(b1-4)GlcNAc(b1-3)Gal(b1-4)GlcNAc(b1-2)[GlcNAc(b1-3)Gal(b1-4)GlcNAc(b1-3)Gal(b1-4)GlcNAc(b1-3)Gal(b1-4)GlcNAc(b1-3)Gal(b1-4)GlcNAc(b1-6)]Man(a1-6)[GlcNAc(b1-3)Gal(b1-4)GlcNAc(b1-3)Gal(b1-4)GlcNAc(b1-3)Gal(b1-4)GlcNAc(b1-3)Gal(b1-4)GlcNAc(b1-2)Man(a1-3)]Man(b1-4)GlcNAc(b1-4)[Fuc(a1-6)]GlcNAc
# In short: as §1
# [28] = molecular target: GlcNAc(b1-3)Gal(b1-4)GlcNAc(b1-3)Gal(b1-4)GlcNAc(b1-3)GalNAc
# In short: as §1
# [29] = molecular target: GlcNAc(b1-3)Gal(b1-4)GlcNAc(b1-3)GalNAc
# In short: as §1
# [30] = molecular target: GlcNAc(b1-3)Gal(b1-4)GlcNAc(b1-3)[GlcNAc(b1-3)Gal(b1-4)GlcNAc(b1-3)]GalNAc
# In short: as §1
# [31] = molecular target: GlcNAc(b1-3)Gal(b1-4)GlcNAc(b1-6)[Gal(b1-3)]GalNAc
# In short: as §1
# [32] = molecular target: GlcNAc(b1-3)Gal(b1-4)GlcNAc(b1-6)[GlcNAc(b1-3)Gal(b1-3)]GalNAc
# In short: as §1
# [33] = molecular target: GlcNAc(b1-3)Gal(b1-4)GlcNAc(b1-6)[GlcNAc(b1-3)]Gal(b1-4)GlcNAc
# In short: as §1
# GlcNAc(b1-3)GalNAc = molecular target: GlcNAc(b1-3)GalNAc
# In short: as §1
# GlcNAc(b1-3)Man = molecular target: GlcNAc(b1-3)Man
# In short: as §1
# [34] = molecular target: GlcNAc(b1-3)[GlcNAc(b1-4)][GlcNAc(b1-6)]GlcNAc
# In short: as §1
# [35] = molecular target: GlcNAc(b1-3)[GlcNAc(b1-6)]Gal(b1-4)GlcNAc
# In short: as §1
# [36] = molecular target: GlcNAc(b1-3)[GlcNAc(b1-6)]GalNAc
# In short: as §1
# [37] = molecular target: GlcNAc(b1-4)Gal(b1-4)GlcNAc
# In short: as §1
# GlcNAc(b1-4)GlcNAc = molecular target: GlcNAc(b1-4)GlcNAc
# In short: as §1
# [38] = molecular target: GlcNAc(b1-4)GlcNAc(b1-4)GlcNAc
# In short: as §1
# [39] = molecular target: GlcNAc(b1-4)GlcNAc(b1-4)GlcNAc(b1-4)GlcNAc(b1-4)GlcNAc
# In short: as §1
binder,measurement,setting,value
Mg3lysM (Mycosphaerella graminicola) (protein) APQNPPTSCSAAPQPTGTGSPGTVCGSTTFTNYTVKAGDTLGAIAKQYNSGVCDIAKVNGIDNPDYIKPDQVLSIPANCVTPDNTSCVKPVPVITNTCVLGVGSTYTVKSGDSFSAIATSFNITLASLEARNPQIPNYDLIFPGQVINTPLCPNSVCDSIGTYVIESGDIFYNLAQSNNVTVGQLESLNVNVNVTDIHPGDIIILPHNCHNITASA,glycan array binding signal (z-score),[1],-0.053
same,glycan array binding signal (z-score),[2],-0.098
same,glycan array binding signal (z-score),[3],-0.152
same,glycan array binding signal (z-score),[4],-0.236
same,glycan array binding signal (z-score),[5],-0.071
same,glycan array binding signal (z-score),[6],-0.152
same,glycan array binding signal (z-score),[7],-0.068
same,glycan array binding signal (z-score),[8],-0.083
same,glycan array binding signal (z-score),[9],-0.113
same,glycan array binding signal (z-score),[10],-0.014
same,glycan array binding signal (z-score),[11],0.027
same,glycan array binding signal (z-score),[12],-0.017
same,glycan array binding signal (z-score),GlcNAc(b1-3)Fuc,0.041
same,glycan array binding signal (z-score),GlcNAc(b1-3)Gal,-0.19
same,glycan array binding signal (z-score),[13],-0.008
same,glycan array binding signal (z-score),GlcNAc(b1-3)Gal(b1-4)Glc,-0.114
same,glycan array binding signal (z-score),[14],-0.048
same,glycan array binding signal (z-score),[15],-0.109
same,glycan array binding signal (z-score),[16],-0.123
same,glycan array binding signal (z-score),[17],-0.174
same,glycan array binding signal (z-score),[18],-0.101
same,glycan array binding signal (z-score),[19],-0.032
same,glycan array binding signal (z-score),[20],-0.097
same,glycan array binding signal (z-score),[21],-0.054
same,glycan array binding signal (z-score),[22],-0.125
same,glycan array binding signal (z-score),[23],-0.011
same,glycan array binding signal (z-score),[24],-0.05
same,glycan array binding signal (z-score),[25],-0.191
same,glycan array binding signal (z-score),[26],0.089
same,glycan array binding signal (z-score),[27],0.031
same,glycan array binding signal (z-score),[28],-0.11
same,glycan array binding signal (z-score),[29],0.057
same,glycan array binding signal (z-score),[30],-0.065
same,glycan array binding signal (z-score),[31],-0.09
same,glycan array binding signal (z-score),[32],-0.034
same,glycan array binding signal (z-score),[33],-0.025
same,glycan array binding signal (z-score),GlcNAc(b1-3)GalNAc,-0.066
same,glycan array binding signal (z-score),GlcNAc(b1-3)Man,-0.025
same,glycan array binding signal (z-score),[34],-0.022
same,glycan array binding signal (z-score),[35],-0.098
same,glycan array binding signal (z-score),[36],-0.075
same,glycan array binding signal (z-score),[37],-0.079
same,glycan array binding signal (z-score),GlcNAc(b1-4)GlcNAc,-0.082
same,glycan array binding signal (z-score),[38],3.96
same,glycan array binding signal (z-score),[39],19.9
